The other results are listed elsewhere or left out. At the low end of the ranking the order means little.
tested on: T1, GST-NbGlk1(82-244); assay: protein-binding microarray; conditions: NbGlk1 is a Golden2-like transcription factor of Nicotiana benthamiana; high values mean tight binding; most listed sequences are background and not binding sites; double strand, one strand shown;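 further: rank-based score ranging −0.5 to +0.5 with E above 0.45 taken as significant binding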
T1 sequence: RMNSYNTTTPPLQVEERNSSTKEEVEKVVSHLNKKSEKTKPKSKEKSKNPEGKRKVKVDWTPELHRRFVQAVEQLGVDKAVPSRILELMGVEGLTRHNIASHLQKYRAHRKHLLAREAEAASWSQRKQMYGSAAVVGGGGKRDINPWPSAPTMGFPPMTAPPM

Sequence | binding signal [E-score]
AGTAGCAC | -0.111
AATGGGAA | -0.00384
ACCTCCGA | -0.273
CAAATCCA | 0.379
ACTGTTAT | 0.189
ACGAATCC | 0.361
AAGTGGGA | -0.0195
CAGCCTAC | -0.0834
ACTCTCAC | -0.0855
ATGAACAC | -0.0347
ACTCACAG | -0.118
AATCATGA | 0.254
ATGCGTTA | -0.0927
AGCGCCGC | -0.225
AGGCTGGA | -0.135
AACGTGCT | -0.0691
ATAGCCTA | -0.0634
ACATCATA | 0.0465
AATGTTTG | 0.0213
ACAAATAT | 0.313
AGCATTCG | -0.154
ACATACAT | 0.0622
ATCTCTAC | 0.297
ACAATAGA | 0.146
AACGTGCA | -0.0641

Sequence | binding signal [E-score]
ACGCTCGC | -0.102
ACGTGATG | -0.135
ATGCGGTA | -0.0325
AGAACCAA | -0.0688
ATCAGGCC | -0.059
CACGAATA | 0.0913
AGCTATCA | -0.131
AAGCGTCT | -0.113
AACATGTT | 0.0631
AAAAGCCA | -0.142
CAAGTGTG | -0.165
AGCGTCCG | -0.218
ACAGTTAT | 0.1
ACCTTGCC | -0.15
CAAAACGG | -0.0892
ACCTTAGA | -0.0815
ACATCCTC | -0.131
AATAGCCA | -0.124
CACCCGGC | -0.182
CACCGTTA | 0.0612
AATTCGCA | 0.264
AGCGTTGA | -0.0401
AGACCGCA | -0.124
ACCTCCTG | -0.16
AGCGGCAG | -0.245

Sequence | binding signal [E-score]
ATTCACCA | 0.136
ATAGACCG | -0.261
ATGTTAAC | 0.111
AAACTTGT | -0.0178
ATGAGTTA | -0.103
AAGACGCT | -0.107
AGCAGGCT | -0.21
ATGACTTA | -0.177
ATGGAAGG | -0.187
ATTCTACA | 0.147
AGGTCAAC | -0.135
ACGTAGAT | 0.221
AAGTGCAA | 0.109
ATACAATA | 0.174
AAAGATCG | 0.278
CACGGTAC | 0.00194
ATAAGAAG | 0.0925
CACTAAGA | 0.0822
AGGCCATA | -0.122
ACCCCATC | -0.163
ACCTCCAA | -0.166
ATAGGTTC | -0.0486
CACCGGAA | 0.00917
ATGTTCGA | -0.0389
ACGGGAGC | -0.181

Sequence | binding signal [E-score]
AAGTAGTG | -0.105
AAGTGGCA | -0.148
AATCCAGT | 0.398
ACACTTTC | -0.0585
AAAAAGCG | 0.0737
ACCAAAAG | -0.141
ACATGTCG | -0.0883
ATACCACG | 0.063
ATCCCGAG | 0.211
AGGCCTAG | -0.198
AGCTTAAG | -0.0518
CACTGTGA | -0.0936
ACTTCCAC | -0.162
CAACTTGC | -0.0764
AGTTCTCA | -0.153
CAATGCAA | 0.0982
AGTACACT | -0.143
AGGATACG | 0.357
ACTGCACT | -0.148
CAGCGAAG | -0.039
CAACCTCG | -0.0426
ATGATCCC | 0.0692
AGAGCAGG | -0.266
AGCCCCAA | -0.324
AACGCAGG | -0.224

Sequence | binding signal [E-score]
ATACCCTC | 0.0749
ACTAACGA | -0.0223
ACCAACAT | 0.00343
AGCTTACA | -0.171
AACGATTA | 0.1
AACGAAAC | 0.111
AGCTTTGA | -0.0255
AAGCACTG | -0.0787
ACCTACGC | -0.208
ATTTAACC | 0.0755
ACACAAGG | -0.123
ACGATCAG | 0.0965
AAGATAGC | 0.128
ATATGACG | 0.135
ACGACCCC | -0.327
AACTGAGC | -0.173
ATGCCAAT | 0.0104
AGAAAGTA | 0.159
ACGTCGCG | -0.0824
AAACCCCG | -0.207
ATCCACCA | 0.188
AATGTGGG | -0.00653
AGGTATTG | 0.0812
ATTGTCGC | 0.035
CACGGATC | 0.18

Sequence | binding signal [E-score]
AGGTATTC | -0.114
AGGCTCTC | -0.217
ATCCCTTG | 0.14
AGATTCCC | 0.493
ACATTGCA | -0.0416
ATCACGTC | 0.0689
ACCGACAT | 0.061
ATGATATG | 0.251
AAACGTAC | -0.0828
ATTTCCAA | 0.36
AAGGTACG | -0.191
AATCAGGT | 0.32
ACCGCTCA | -0.0566
CACATCCA | 0.00498
AATGTAGG | 0.0396
AATAACGA | 0.125
AGCCGCGG | -0.0482
AAAATTGT | 0.0701
ATGCACGA | -0.0751
ATCCCAAA | 0.229
AGGCTCAA | -0.218
ATAGCACG | -0.014
AGAGTCAC | -0.241
AGCTCGAA | -0.125
ATCATGGA | 0.207

Sequence | binding signal [E-score]
ATTGCCAG | 0.201
ATGGTAAT | 0.305
CACGCGTA | 0.0951
ACCTTCAA | -0.13
AATCCGCG | 0.396
ATAGAAAA | 0.177
AGGTATAG | -0.162
ACCATACT | 0.0125
AGCTCGCA | -0.198
AACATGTG | -0.191
ACTCGCAA | 0.116
CAATGGTG | -0.0635
CAGCGAAA | 0.0177
AAATCTTG | 0.421
AATTTAAG | 0.118
ACGACCGA | -0.0228
ACTTCGCG | -0.0497
CAATTCAA | 0.0499
AACTGGTC | -0.12
AGTGTAAT | 0.362
AGTTTGCA | -0.0193
ACCTCTGG | -0.276

Source: publication PMC5836133
